Assay results published in patent US6562856B1, “Pyrazolyl benzyl ether deriviatives having a fluoromethoxy group and the use thereof as pesticides” (Bayer Aktiengesellschaft, priority 1999, dated 2003).

Protocol: The logP values were determined in accordance with EEC Directive 79/831 Annex V. A8 by HPLC (gradient method, acetonitrile/0.1% aqueous phosphoric acid)

Going from COC(=O)C(=COCF)c1ccccc1COc1ccn(-c2ccc(C(C)(C)C)cc2)n1 [Example 2] to COC(=O)C(=COCF)c1ccccc1COc1ccn(-c2ccc(C)cc2)n1 [Example 10], the logP falls from 4.63 to 3.77.

Compared with COC(=O)C(=COCF)c1ccccc1COc1ccn(-c2ccc(F)cc2)n1 [Example 3], COC(=O)C(=COCF)c1ccccc1COc1ccn(-c2ccc(Br)cc2)n1 [Example 6] is higher in logP: 3.49 for the first, 4.04 for the second.

First: COC(=O)C(=COCF)c1ccccc1COc1ccn(-c2ccc(C(C)C)cc2)n1 [Example 4]
Second: COC(=O)C(=COCF)c1ccccc1COc1ccn(-c2ccc(C#N)cc2)n1 [Example 9]
The logP of the first is higher: 4.39 for the first, 3.24 for the second.

Compared with COC(=O)C(=COCF)c1ccccc1COc1ccn(-c2cccc(Br)c2)n1 [Example 5], COC(=O)C(=COCF)c1ccccc1COc1ccn(-c2cccc(C)c2)n1 [Example 16] is lower in logP: 4 for the first, 3.77 for the second.

Compared with COC(=O)C(=COCF)c1ccccc1COc1ccn(-c2cc(Cl)cc(Cl)c2)n1 [Example 7], COC(=O)C(=COCF)c1ccccc1COc1ccn(-c2cccc(Cl)c2)n1 [Example 18] is lower in logP: 4.59 for the first, 3.92 for the second.

COC(=O)C(=COCF)c1ccccc1COc1ccn(-c2ccccc2Cl)n1 [Example 8] and COC(=O)C(=COCF)c1ccccc1COc1ccn(-c2ccccc2Br)n1 [Example 12] are within 0.2 log units of each other in logP: 3.59 for the first, 3.61 for the second.

COC(=O)C(=COCF)c1ccccc1COc1ccn(-c2ccc(Cl)cc2Cl)n1 [Example 11] and COC(=O)C(=COCF)c1ccccc1COc1ccn(-c2cc(Cl)ccc2Cl)n1 [Example 20] are within 0.2 log units of each other in logP: 4.15 for the first, 4.11 for the second.

COC(=O)C(=COCF)c1ccccc1COc1ccn(-c2ccccc2)n1 [Example 13] and COC(=O)C(=COCF)c1ccccc1COc1ccn(-c2c(Cl)cccc2Cl)n1 [Example 15] are within 0.2 log units of each other in logP: 3.45 for the first, 3.52 for the second.

First: COC(=O)C(=COCF)c1ccccc1COc1ccn(-c2c(Cl)cc(C(F)(F)F)cc2Cl)n1 [Example 14]
Second: COC(=O)C(=COCF)c1ccccc1COc1ccn(-c2cccc(Cl)c2Cl)n1 [Example 19]
The logP of the first is higher: 4.23 for the first, 3.95 for the second.

COC(=O)C(=COCF)c1ccccc1COc1ccn(-c2ccc(F)cc2F)n1 [Example 17] gave a logP of 3.64.
